From PubChem BioAssay AID651820 (National Center for Advancing Translational Sciences (NCATS), 2012)
“And” between values parts separate entries of the source, which are not always exact repeats. Equal values may be shown once. Out of some 340,000 compounds screened, about 12,000 (3.5%) were called active. The inconclusive results got no clear call from the source; some entries with a clear call stand among them for comparison. Calls come from the whole dose curve; as a rule, active = well fitted inhibition curve with a large enough effect; inconclusive = small, poorly fitted or top-dose-only effect, or another doubt; inactive = no such curve, though single readings can be large or run the other way. Potencies of inconclusive entries are doubtful fits and often do not repeat.

Test: qHTS Assay for Inhibitors of Hepatitis C Virus (HCV)
Conditions: Huh7.5.1 HCVcc-Cre (HCVcc is cell-culture hepatitis C virus) infection, luciferase reporter, 44 h; series mostly up to 41.8 µM
In short: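 Infectious HCV cell culture screen: compound-treated cells (1,000/well, pre-plated 4 h) are infected with HCVcc-Cre at roughly 0.5 moi and grown 44 h. Infection is quantified by luciferase signal after 15 min substrate incubation at room temperature.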
Potency is the fitted concentration of half-maximal effect; tags give direction and shape of the fitted curve.

**Q.** With CCCCNc1nnc(SCC(=O)c2c(N)n(CCC)c(=O)[nH]c2=O)s1 as the compound, how does the Potency read?
**A.** The Potency was “inactive”.

**Q.** For Cc1cccc(NC(=O)Nc2ccc3c(c2)CCC3)c1, which Potency is on record?
**A.** The Potency was inconclusive: 7.08 µM [inhibitor, partial curve].

**Q.** Which Potency does the source give for CCOC(=O)C(CC)n1nc(C)n2c(cc3sccc32)c1=O (stereo not given) here?
**A.** The Potency was inconclusive: 11.2 µM [inhibitor, single point].

**Q.** For COc1ccc2c(c1)c(=O)c(C(=O)c1ccccc1)cn2Cc1ccc(C)cc1, which Potency is on record?
**A.** Its Potency is inconclusive: 22.4 µM [inhibitor, single point].

**Q.** For NNC(=O)c1ccc(COc2cccc3cccnc23)cc1, which Potency is on record?
**A.** Its Potency is “inactive”.

**Q.** Which Potency does the source give for Cc1ccc(-n2c(C)nc3ccccc3c2=O)c(C)c1 here?
**A.** Its Potency is inconclusive: 25.1 µM [inhibitor, single point].

**Q.** For Cc1ccc(/C=C/C(=O)c2c(C)nc3ccccn23)cc1, which Potency is on record?
**A.** Its Potency is “inactive”.

**Q.** Which Potency does the source give for O=[N+]([O-])c1cccc(C=NNc2ccccc2)c1 here?
**A.** Its Potency is inconclusive: 31.6 µM [inhibitor, single point].

**Q.** Which Potency does the source give for O=C(CN1CCOCC1)n1c2c(c3ccccc31)CCCC2 here?
**A.** Its Potency is inconclusive: 31.6 µM [inhibitor, single point].

**Q.** Which Potency does the source give for COc1ccc(NS(=O)(=O)c2cc(NC(=O)c3cnc(C)cn3)ccc2N2CCCC2)cc1 here?
**A.** Its Potency is inconclusive: 12.6 µM [inhibitor, partial curve].

**Q.** With CC(C)(C)OC(=O)C[C@@H]1C/C=C\C[C@H](CC(=O)NCCO)C(=O)N2CCC[C@H]2COC1=O as the compound, how does the Potency read?
**A.** Its Potency is inconclusive: 31.6 µM [inhibitor, single point].

**Q.** Which Potency does the source give for CCOC(=O)[C@H]1[C@H]2COc3ccc(OC)cc3[C@@H]2N2C(=O)CN(Cc3ccco3)C(=O)[C@@]12C here?
**A.** The Potency was “inactive”.

**Q.** For Cc1cc(C)c(-c2nc3ccccc3s2)[nH]1, which Potency is on record?
**A.** The Potency was “inactive”.

**Q.** Which Potency does the source give for COc1cc(C2Nc3cccc4cccc(c34)N2)cc(OC)c1O here?
**A.** Its Potency is “inactive and inconclusive: 22.4 µM [inhibitor, single point]”.

**Q.** For Cc1ccc(-c2c[n+]3c(n2-c2ccccc2)CCC3)cc1, which Potency is on record?
**A.** Its Potency is inconclusive: 8.91 µM [inhibitor, partial curve].

**Q.** Which Potency does the source give for CN1CCC(N(C)C(=S)Nc2ccc(SC(F)F)cc2)CC1 here?
**A.** Its Potency is inconclusive: 31.6 µM [inhibitor, single point].

**Q.** Which Potency does the source give for NC(=O)CC(NC(=O)Cc1cccc2ccccc12)c1ccc(NC2CCCCCCC2)c([N+](=O)[O-])c1 (stereo not given) here?
**A.** The Potency was “inactive”.

**Q.** With CC(OC(=O)c1ccc(Br)o1)C(=O)NCC1CCCCC1 (stereo not given) as the compound, how does the Potency read?
**A.** Its Potency is inconclusive: 31.6 µM [inhibitor, single point].

**Q.** With Cc1cc(C(=O)Nc2ccccc2C)n(-c2ccccc2)n1 as the compound, how does the Potency read?
**A.** The Potency was “inactive”.

**Q.** With O=C(Nc1ccccc1N1CCN(C(=O)c2ccc(Cl)cc2)CC1)c1cc2ccccc2o1 as the compound, how does the Potency read?
**A.** Its Potency is “inactive”.

**Q.** Which Potency does the source give for CS(=O)(=O)c1sc(C#N)c2c1C(=O)CC(c1ccccc1)C2 (stereo not given) here?
**A.** The Potency was inconclusive: 22.4 µM [inhibitor, single point].

**Q.** For Cc1nc(NC(=O)c2cc(-n3cnnc3)ccc2Cl)ccc1Br, which Potency is on record?
**A.** The Potency was inconclusive: 10 µM [inhibitor, partial curve].

**Q.** With O=C1C=CC[C@H](/C=C/C[C@@H](O)C[C@H](O)CCc2ccccc2)O1 as the compound, how does the Potency read?
**A.** The Potency was inconclusive: 10 µM [inhibitor, single point].

**Q.** For COc1ccc(-c2ccnc(SCC(=O)c3ccc(Cl)cc3)n2)cc1, which Potency is on record?
**A.** The Potency was inconclusive: 31.6 µM [inhibitor, single point].

**Q.** For CCN(C(=O)COC(=O)c1cc(-c2ccccc2)nc2c1c(C)nn2-c1ccccc1)C1CCS(=O)(=O)C1 (stereo not given), which Potency is on record?
**A.** The Potency was inconclusive: 0.501 µM [inhibitor, full curve, poor fit].

**Q.** For CCOc1ccc(C2Nc3ccc4ccccc4c3-c3c2c(=O)oc2ccccc32)cc1 (stereo not given), which Potency is on record?
**A.** Its Potency is inconclusive: 10 µM [inhibitor, partial curve].

**Q.** For CCOC(=O)c1c(NC(=S)NCCc2ccccc2)sc2c1CC(C(C)C)OC2 (stereo not given), which Potency is on record?
**A.** The Potency was inconclusive: 22.4 µM [inhibitor, single point].

**Q.** With O=[N+]([O-])c1ccc(N2CCN(C(=S)NCc3ccc(Cl)cc3)CC2)cc1 as the compound, how does the Potency read?
**A.** The Potency was active: 11.2 µM.

**Q.** For Cc1ccc(C(=O)Nc2nc3ccccc3c(=O)s2)cc1, which Potency is on record?
**A.** Its Potency is active: 8.91 µM.

**Q.** For O=S(=O)(c1ccc(SCc2ccccc2)nc1)N1CCCC1, which Potency is on record?
**A.** Its Potency is inconclusive: 25.1 µM [inhibitor, single point].

**Q.** For CCCn1c(NC(=O)c2ccc(F)cc2)nc2ccccc21, which Potency is on record?
**A.** Its Potency is “inactive”.

**Q.** For CN(C)C1=NC[C@H](Cc2ccccc2)N1CCCC1CCCC1, which Potency is on record?
**A.** Its Potency is inconclusive: 11.2 µM [inhibitor, partial curve].

**Q.** With COc1cccc(C2CCCN2Cc2nc(-c3cnccn3)no2)c1 (stereo not given) as the compound, how does the Potency read?
**A.** The Potency was “inactive”.

**Q.** Which Potency does the source give for COc1ccccc1NC(=S)N(CCCN1CCOCC1)Cc1cn(C)c2ccccc12 here?
**A.** Its Potency is inconclusive: 0.562 µM [inhibitor, full curve, poor fit].

**Q.** Which Potency does the source give for CC1Cc2ccccc2N1C(=O)CN(C)CC(=O)Nc1ccc(F)cc1 (stereo not given) here?
**A.** The Potency was inconclusive: 12.6 µM [inhibitor, partial curve].

**Q.** With COc1cc(/C=N/NC(=O)c2cccnc2)cc(Br)c1O as the compound, how does the Potency read?
**A.** The Potency was “inactive”.

**Q.** With Cc1nn(Cc2ccc(Cl)cc2)c(C)c1NC(=O)c1cc(C(C)C)on1 as the compound, how does the Potency read?
**A.** Its Potency is active: 11.2 µM.

**Q.** With O=C(CSc1ncnc2scc(-c3ccc(F)cc3)c12)c1ccc2c(c1)OCCO2 as the compound, how does the Potency read?
**A.** Its Potency is inconclusive: 12.6 µM [inhibitor, single point].

**Q.** Which Potency does the source give for CCOc1ccc(C(=S)N2CCOCC2)cc1OCC here?
**A.** Its Potency is inconclusive: 31.6 µM [inhibitor, single point].

**Q.** For Cc1ccc(NC2=CC(=O)C(=O)c3ccccc32)cc1, which Potency is on record?
**A.** Its Potency is active: 10 µM.

**Q.** With CCOCCCNC(=O)c1cc2sc(Cl)cc2n1CC as the compound, how does the Potency read?
**A.** The Potency was inconclusive: 12.6 µM [inhibitor, single point].

**Q.** Which Potency does the source give for COc1ccccc1Cn1c(=S)[nH]c2cc(C(=O)N3CCN(C)CC3)ccc2c1=O here?
**A.** The Potency was “inactive”.

**Q.** Which Potency does the source give for NC(=O)[C@H]1CC2(CC(c3cccc(NC(=O)COc4ccc(Cl)cc4)c3)=NO2)CN1C(=O)c1ccccc1C(=O)c1ccccc1 (stereo not given in full) here?
**A.** The Potency was inconclusive: 11.2 µM [inhibitor, partial curve].

**Q.** Which Potency does the source give for Cc1[nH]c2ccc(C(=O)OCC(=O)NC3(C#N)CCCCC3)cc2c1C here?
**A.** Its Potency is inconclusive: 12.6 µM [inhibitor, partial curve].

**Q.** Which Potency does the source give for c1ccn2c(c1)nc1c2nc2ccccn21 here?
**A.** The Potency was “inactive”.
